B1: OR4K15 (parent)
chain: GUUAACGGUCAUAGGCCAUGGAAACUAGGAGCACCAUUUCGCUGCCAGUGAAGAAAUGAACAAAGAAAAUCUGGGCCAGGCAGGCAUCAAAAGAAAUAGUCUUGCGCUCAACCAGAAAGUCUGUAAUCAUUUUAAGGGUA

Read counts are not given, so values of variants with three or more changes are uncertain.

In this series the parent is B1. Kind of series: self-cleavage, relative activity (ratio to wild type); higher = more cleavage; in vitro, sequencing; the parent is a self-cleaving ribozyme.
In the case of GUUAACGGUCAUAGGCCAUGGAAACUAGGAGCACCAUCUCGCUGCCAGUGAAGAAAUGAACAAAGAAAAUCUGGGCCAGGCGGGCUUCAAAAGAAGUAGUCUUGCGCUCAACCAGAAAGUCUGUAAUCAUUUUAAGGGAA [U38C A82G A86U A96G U139A], the self-cleavage came out at 0.6.
For the variant GUUAACGGUCAUAGGCCAUGGAAACUAGGAGCACCAUCUCGCAGCCAGUGAAGAAACGAACAAUGAAAAUCUGGGCCAGGCAGGCAUCAAAAGAAAUAGUCUUGCGCUCAACCAGAUAGUCUGUAAUCAUUUUAAGGGUA [U38C U43A U57C A64U A117U], the self-cleavage stood at 0.51.
The figure for GUUAACGGUCAUAGGCCAUGGAAACUAGGAGCACCAUCUCGCCGCCAGUGAAGAAAUGAACAAAGAAAAUCUGGGCCAGGCAGGCAUCAAAAGAAAUAGUCUUGCGCUCAACCAGAAAGUCUGUAUUCAUUUUAAGGGUA [U38C U43C A126U] is 1.14; for GUUAACGGUCAUAGGCCAUGGAAACUAGGAGCACCAUCCCGCUGCCAGUGAAGAAAUGAACAAAGAAAAUCCGGGCCAGGCAGGCAUCAAAAGAAAUAGUCUUGCGCUCAACCAGAAAGUCUGUAAUCAUUUUAAGGGUA [U38C U39C U72C] it is 0.38; for GUUAACGGUCAUAGGCCAUGGAAACUAGGAGCACCAUCUCGCUGCCAGUGAAGAAAUGAACAAAGAAAAUCUGGGCCAGGCAGGCAUCAUAAGAAAUAGUCUUGCGCUCAACCAGAAAGUCUGUAAUCAUCUUAAGGGUA [U38C A90U U131C] it is 2.96.
The figure for GUUAACGGUCAUAGGCCAUGGAAACUAGGAGCACCAUCUCGCCGCCAGUGAAGAAAUGAACAAAGAAAAUCUGGGCCAGGCAGGCAUCAGAAGAAAUAGUCUUGCGCUCAACCAGAAAGUCUGUGAUCAUUUUAAGGGUA [U38C U43C A90G A125G] is 0.44; for GUUAACGGUCAUAGGCCAUGGAAACUAGGAGCACCAUCACGCUGCCAGUGAAGAAAUGAACAAAGAAAAUCUGGGCCAGGCAGGCAUCAAAAGGAAUAGUCUUGCGCUCAACCGGAAAGUCUGUAAUCAUUUUAAGGGUA [U38C U39A A94G A114G] it is 0.65; for GUUAACGGUCAUAGGCCAUGGAAACUAGGAGCACCAUCUCGCUGCCAGUGAAGAAAUGAACAAAGAGAAUCUGGGCCAGGCAGGCAUCAAAAGAAACAGUCUUGCGCUCGACCAGAAAGUCUGUAAUCAUUUUAAGGGUA [U38C A67G U97C A110G] it is 0.13.
The figure for GUUAACGGUCAUAGGCCAUGGAAACUAGGAGCACCAUCUCGCUGCCAGUGAAGAAAUGAACAAAGAAAAUCUGGGCCAGGCAGGCAUCAAGAGAAAUAGACUUGCGCUCAACCAGAAAGUCCGUAAUCAUUUUAAGGGUA [U38C A91G U100A U122C] is 0.32.
GUUAACGGUCAUAGGCCAUGGAAACUAGGAGCACCAUCUCGCUGCCAGUGAAGAAAUGAACAAAGAAAAUCUGGGCCUGGCAGGCUUCAAAAGAAAUAGCCUUGCGCUCAACCAGAAAGUCUGUAAUCAUUUUAAGGGUA [U38C A78U A86U U100C]: the self-cleavage worked out at 1.45.
Under GUUAACGGUCAUAGGCCAUGGAAACUAGGAGCACCAUCUCGCUGCCAGUGAAGAAAUGAACAAAGAAAAUCUGGGCCAGGCAGGCAUCAAUAGAAAUAGUCUUGCGCUCAACCAGAAAGUCUGUAGUCAUUUUAAGGGUA [U38C A91U A126G] stands 0.89.
The figure for GUUAACGGUCAUAGGCCAUGGAAACUAGGAGCACCAUCACGCAGCCAGUGAAGAAAUGGACAAAGAAAAUCUGGGCCAGGCAGGCAUCAAAGGAAAUAGUCUUGCGCUCAACCAGAAAGUCUGUAAUCAUUUUAAGGGUA [U38C U39A U43A A59G A92G] is 1.24.
The figure for GUUAACGGUCAUAGGCCAUGGAAACUAGGAGCACCAUCUCACUGCCAGCGAAGAAAUGAGCAAAGAAAAUCUGGGCCAGGCAGGCAUCAAAAGAAAUAGUCUUGCGCUCAACCAGAAAGUCUGUAAUCAUUUUAAGGGUA [U38C G41A U49C A60G] is 0.94.
Take GUUAACGGUCAUAGGCCAUGGAAACUAGGAGCACCAUCUCGCUGCCAGUGAAGAAAUGAACAAAGAAAAUCUGGGCCAGGCAGGCAUCAAAAGAAGUAGUCUUGCGCUCAACCAGAAAGUCUGUAAUCAUUUUAGGGGUA [U38C A96G A135G]: the self-cleavage worked out at 2.04.
The figure for GUUAACGGUCAUAGGCCAUGGAAACUAGGAGCACCAUCUCGCUGCCAGUGAAGAAAUGAACAAAGAAAAUCUGGGCCGGGCAGGCAUCAAAAGAAAUAGUCUUGCGCUCAACCAGAAAGUCCGCAAUCAUUUUAAGGGUA [U38C A78G U122C U124C] is 0.08; for GUUAACGGUCAUAGGCCAUGGAAACUAGGAGCACCAUCUCGCUGCCAGUGAAGAAAUGAACAAAGAAAAUCUGGGCCCGGCAGGCAUCAAAAGAAAUAGUCCUGCGCUCAACCAGAAAGUCUGUAAUCAUCUUAAGGGUA [U38C A78C U102C U131C] it is 0.45; for GUUAACGGUCAUAGGCCAUGGAAACUAGGAGCACCAUCUCGCUGCCAGUGAAGAAAUGAACAAAGAAAAUCUGGGCCAGGCAGGCAUCAAAAGAAAUAGUCUUGCGCUCAACCAGAAAGUCUGUAUUCUUUUUAAGGGUA [U38C A126U A129U] it is 0.39.
Turning to GUUAACGGUCAUAGGCCAUGGAAACUAGGAGCACCAUCUCACUGCCAGUGAAGAAAUGAACAAAGAAAAUCUGGGCCGGGCAGGCAUCAAAAGAAAUAGUCUUGCGCUCAACCAGAAAGUCUGUAAUCAUUUUAAGGGUA [U38C G41A A78G], the self-cleavage was 0.4.
Under GUUAACGGUCAUAGGCCAUGGAAACUAGGAGCACCAUCUCGCUGCCAGUGAAGAAAUGAACAAAGAAGAUCUGGGCCUGGCAGGCAUCAAAAGGAGUAGUCUUGCGCUCAACCAGAAAGUCUGUAAUCAUUUUAAGGGUA [U38C A68G A78U A94G A96G] stands 0.58; under GUUAACGGUCAUAGGCCAUGGAAACUAGGAGCACCAUCUCGCUGCCAGUGAAGAAAUGAACAAAGAGAAUCUGGGCCAGGCAGGCAUCAAAAGAAAUAGUCUAGCGCUCAACCAGAAAGACUGUAAUCAUUUUAAGGGUA [U38C A67G U103A U120A], 0.7.
Under GUUAACGGUCAUAGGCCAUGGAAACUAGGAGCACCAUCUCGCUGCCAGUGAAGAAAUGAACAAAGAAAAUCUGGGCCAGGCAGGCAUCAAAAGAAAUAGUCUUGCGCUCAACCAGGAAGUCUGUAAUCAUUUUAGGGGUA [U38C A116G A135G] stands 1.05.
Under GUUAACGGUCAUAGGCCAUGGAAACUAGGAGCACCAUCUCGCUGCCAGUGAAGAAAUGAACAAAGAAAAUCUGGGCCAGGCAGGCAUCAAAAGAAAUAGUCUUGCGCUCAACUAGAGAGUCUGUAAUCAUUUUAAGGGUA [U38C C113U A117G] stands 0.07; under GUUAACGGUCAUAGGCCAUGGAAACUAGGAGCACCAUCUCGCUGCCAGUGAAGAAAUGAACAAAGAAAAUCUGGGCCAGGCAGGCAUCAAAAGGAAUAGUCUUGCGCUCAGCCAGAGAGUCUGUAAUCAUUUUAAGGGUA [U38C A94G A111G A117G], 0.01; under GUUAACGGUCAUAGGCCAUGGAAACUAGGAGCACCAUCUCGCUGCCAGUGAAGAAAUGAACAAAGAAAAUCUGGGCCGGGCAGGCAUCAAAAGGAAUAGUCUUGCGCUCAACCAGAAAGUCUGUAAUCAUCUUAAGGGUA [U38C A78G A94G U131C], 0.23.
Take GUUAACGGUCAUAGGCCAUGGAAACUAGGAGCACCAUCUCGCUGCCAGUGAAGAAAUGAACAAAGAAAAUCUGGGCCAGGCAGGCAUCAAAGGAAAUAGUAUUGCGCUCAACCAGAAAGUCUGUAAUCAUUUUAAGGGUA [U38C A92G C101A]: the self-cleavage came out at 0.18.
For GUUAACGGUCAUAGGCCAUGGAAACUAGGAGCACCAUCUCGCUGCCAGUGAAGAAAUGAACAAAGAAAAUCUGGGCCAGGCAGUCAUCAAAAGAGAUAGUCUUGCGCCCAACCAGAAAGUCUGUAAUCAUCUUAAGGGUA [U38C G84U A95G U108C U131C], the self-cleavage came out at 0.
Under GUUAACGGUCAUAGGCCAUGGAAACUAGGAGCACCAUCUCGCUGCCAGUGAAGAAAUGAACAAAGAAAAUCUGGGCCCGGCAGGCAUCAAAAGAAAUAGUCCUGCGCUCAACCAGAAAGUCUGUAAUCAUUUUAAGGGUA [U38C A78C U102C] stands 0.56.
Take GUUAACGGUCAUAGGCCAUGGAAACUAGGAGCACCAUCUCGCUGCCAGUGAAGAAAUGAACAAAGAAAAUCUGGGCCAGGCAGGCAUCGAAAGAAAUAGUCUUGCGCUCAACCUGAAAGUCUGUAGUCAUUUUAAGGGUA [U38C A89G A114U A126G]: the self-cleavage came out at 0.04.
In the case of GUUAACGGUCAUAGGCCAUGGAAACUAGGAGCACCAUCUCGUUGCCAGUGAAGAAAUGAACAAAGAAAAUCUGGGCCAGGCGGGCAUCAAAAGAAAUAGUCUUGCGCUCAACCAGAAAGUCUGUAAUCAUUUUAAGGGUA [U38C C42U A82G], the self-cleavage was determined as 0.61.
Under GUUAACGGUCAUAGGCCAUGGAAACUAGGAGCACCAUCUCGCCGCCAGUGAAGAAAUGAACAAAGAAAAUCUGGGCCGGGCAGGCAUCAAAAGAAACAGUCUUGCGCUCAACCAGAAAGUCUGUAAUCAUUCUAAGGGUA [U38C U43C A78G U97C U132C] stands 0.15; under GUUAACGGUCAUAGGCCAUGGAAACUAGGAGCACCAUCUCGAUGCCAGUGAGGAAAAGAACAAAGAAAAUCUGGGCCAGGCAGGCAUCAAAAGAAAUAGUCUUGCGCUCAACCAGAAAGUCUGUAAUCAUUUUAAGGGUA [U38C C42A A52G U57A], 0.68.
Take GUUAACGGUCAUAGGCCAUGGAAACUAGGAGCACCAUCUCGCUGCCAGUGAAGAAAUGAACAAAGAAAAUCUAGGCCAGGCAGGCAUCAAAAGAAAUUGUCUUGCGCUCAACCAGAAAGUCUGUAAUCAUUUUAAGGGUA [U38C G73A A98U]: the self-cleavage was 0.15.
The figure for GUUAACGGUCAUAGGCCAUGGAAACUAGGAGCACCAUCUCGCUGCCAGUGAAGAAAUGAACAAAGAAAAUCUGGGCCAGGCAGGCAUCAAAAGAAAUAGUCUUGCGCUCACCCAGAAAGUCUGCAAUCAUCUUAAGGGUA [U38C A111C U124C U131C] is 0; for GUUAACGGUCAUAGGCCAUGGAAACUAGGAGCACCAUCUCGCUGCCAGUGAAGAAAUGAACAAAGAGAAUCUGGGCCAGGCAGGCAUCAAAAGAAACAGUCUUGCGCUCAACCAGAAAGUCUGUAAUCAUUUUAAGGGUA [U38C A67G U97C] it is 1.32.
Under GUUAACGGUCAUAGGCCAUGGAAACUAGGAGCACCAUCUCGCUGCCAGUGAAGAAAUGAACAAAGAAAAUCUGGGCCAGGCAGGCAUCAAAAGGAAUAGUCUUGCGCUCAACCAGAAAGUUUGCAAUCAUUUUAAGGGUA [U38C A94G C121U U124C] stands 0.26; under GUUAACGGUCAUAGGCCAUGGAAACUAGGAGCACCAUCUCGCUGCCAGUGAAGAAAUGAACAAAGAAAAUCUGGGCCAGGCAGGCAUCAAAUAAAAUAGUCUUGCGCUCAACCAGAAAGUCUGUGAUCAUUUUAAGGGUA [U38C A92U G93A A125G], 0.83; under GUUAACGGUCAUAGGCCAUGGAAACUAGGAGCACCAUCACGCUGCCAGUGAAGAAAUGAACAAAGAAAUUCUGGGCCAGGCAGGCAUCAAAAGAAAUAGUCUUGCGCACAACCAGAAAGUCCGUAAUCAUUUUAAGGGUA [U38C U39A A69U U108A U122C], 0.02.
The figure for GUUAACGGUCAUAGGCCAUGGAAACUAGGAGCACCAUCUCGCUGCCAGUGAAGAAAUGAACAAAGAAGAUCUGGGCCAGGCAGGCAUCAAAGGAAAUAGUCUUGCGCUCGACCAGAAAGUCUGUAAUCAUUUUAAGGGUA [U38C A68G A92G A110G] is 0.62.
GUUAACGGUCAUAGGCCAUGGAAACUAGGAGCACCAUCACGCUGCCAGUGAAGAAAUGAACAAAGAAAAACUGGGCCAGGCAGGCAUCAAAAGGAAUAGUCUUGCGCUCAACCAGAAAGUCUGUAAUCAUUUCAAGGGUG [U38C U39A U70A A94G U133C A140G]: the self-cleavage came to 1.23.
Take GUUAACGGUCAUAGGCCAUGGAAACUAGGAGCACCAUCUCGCUGCCAGUGAAGAAAUGAACAAAGAAAAUCUGGGCCAGGCAGGCAUCAAAAGAAAUAGUCUUGCGCUCAACCGGAAAGUCUGUGAUCAUUUUAAGGGUA [U38C A114G A125G]: the self-cleavage is 0.09.
Turning to GUUAACGGUCAUAGGCCAUGGAAACUAGGAGCACCAUCUCGCUGCCAGUGAAGAAAUGAACAAAGAAAAUCUGGGCCAGGCAGGCAUCAGAAGAAAUAGUCUUGCGCUCGACCAGAAAGUCUGUAAUCAUUUUAAGGGUA [U38C A90G A110G], the self-cleavage turned out to be 0.38.
